Experimental data: the supplement of paper PMC4604168 (melanoma cell lines)
The list shows a part of the results. Many values rest on one well or one pass, so single values are uncertain.

Assays:
Assay in all cases: cell count relative to DMSO control; melanoma cells; higher = more viable cells
Details in all cases: library dose: standard library concentration; 72 h
G361 = test system: G361
IPC-298 = test system: IPC-298
IST-MEL1 = test system: IST-MEL1
LB2518-MEL = test system: LB2518-MEL
LOXIMVI = test system: LOXIMVI
MEL-HO = test system: MEL-HO
MZ2-MEL = test system: MZ2-MEL
MeWo = test system: MeWo
RPMI7951 = test system: RPMI7951
RVH-421 = test system: RVH-421
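Further: cells treated in 1,536-well plates, then fixed and DAPI-stained, with nuclei counted from automated high-throughput microscope images.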

Row | Structure (SMILES) | cell count (G361) | cell count (IPC-298) | cell count (IST-MEL1) | cell count (LB2518-MEL) | cell count (LOXIMVI) | cell count (MEL-HO) | cell count (MZ2-MEL) | cell count (MeWo) | cell count (RPMI7951) | cell count (RVH-421)
1 | N#CC[C@H](C1CCCC1)n1cc(-c2ncnc3[nH]ccc23)cn1 [ruxolitinib] + CC(C)CCN1c2nc(Nc3cc(F)c(O)c(F)c3)ncc2N(C)C(=O)C1C [BID1870] (first compound 5 µM, partner dose 1 µM) | 65.8% | 63.7% | 83.5% | 123% | 81.3% | 69.8% | 103% | 49.1% | 61.2% | 64.4%
2 | Cc1cc(Nc2cc(N3CCN(C)CC3)nc(Sc3ccc(NC(=O)C4CC4)cc3)n2)n[nH]1 [Tozasertib] + Cc1nc(Nc2ncc(C(=O)Nc3c(C)cccc3Cl)s2)cc(N2CCN(CCO)CC2)n1 [dasatanib] (first compound 0.03 µM, partner dose 0.02 µM) | 61.8% | 65.1% | 54.3% | 69.5% | 22.9% | 59.9% | 37.1% | 74% | 42.4% | 52.2%
3 | Cc1cc(Nc2cc(N3CCN(C)CC3)nc(Sc3ccc(NC(=O)C4CC4)cc3)n2)n[nH]1 [Tozasertib] + O=C(Nc1cc(C(F)(F)F)cc(C(F)(F)F)c1)c1cc(Cl)ccc1O [IMD0354] (first compound 0.03 µM, partner dose 0.08 µM) | 93% | 83.2% | 92.2% | 70.8% | 73.6% | 77.5% | 65.3% | 84% | 79% | 64.3%
4 | CC[C@]1(O)C[C@H]2CN(CCc3c([nH]c4ccccc34)[C@@](C(=O)OC)(c3cc4c(cc3OC)N(C=O)[C@H]3[C@@](O)(C(=O)OC)[C@H](OC(C)=O)[C@]5(CC)C=CCN6CC[C@]43[C@@H]65)C2)C1 [vincristine] + COc1ccc(C2=N[C@@H](c3ccc(Cl)cc3)[C@@H](c3ccc(Cl)cc3)N2C(=O)N2CCNC(=O)C2)c(OC(C)C)c1 [Nutlin-3] (first compound 0.0005 µM, partner dose 0.5 µM) | 77.7% | 99.1% | 89.3% | 77.9% | 56.8% | 81.6% | 98.6% | 99.3% | 62.6% | 64.5%
5 | Cc1cc(Nc2cc(N3CCN(C)CC3)nc(Sc3ccc(NC(=O)C4CC4)cc3)n2)n[nH]1 [Tozasertib] + O=C1NC(=O)/C(=C/c2ccc(-c3ccc(F)cc3O)o2)S1 [AS252424] (first compound 0.03 µM, partner dose 5 µM) | 71.6% | 88.2% | 82.5% | 73.3% | 106% | 74.6% | 72.1% | 72.7% | 54.3% | 92%
6 | Cc1cc(Nc2cc(N3CCN(C)CC3)nc(Sc3ccc(NC(=O)C4CC4)cc3)n2)n[nH]1 [Tozasertib] + Cn1cc(/C=C2\C(=O)Nc3cccnc32)c2ccccc21 [GW441756] (first compound 0.03 µM, partner dose 2 µM) | 77.6% | 72.1% | 85.1% | 67.9% | 93.1% | 81.9% | 62.9% | 66.6% | 71.5% | 72%
7 | CC[C@]1(O)C[C@H]2CN(CCc3c([nH]c4ccccc34)[C@@](C(=O)OC)(c3cc4c(cc3OC)N(C=O)[C@H]3[C@@](O)(C(=O)OC)[C@H](OC(C)=O)[C@]5(CC)C=CCN6CC[C@]43[C@@H]65)C2)C1 [vincristine] + CC(C)CCN1c2nc(Nc3cc(F)c(O)c(F)c3)ncc2N(C)C(=O)C1C [BID1870] (first compound 0.0005 µM, partner dose 1 µM) | 8.9% | 50.6% | 30.1% | 55.3% | 29.4% | 42.3% | 32.4% | 16.6% | 34.2% | 34.3%
8 | CC[C@]1(O)C[C@H]2CN(CCc3c([nH]c4ccccc34)[C@@](C(=O)OC)(c3cc4c(cc3OC)N(C=O)[C@H]3[C@@](O)(C(=O)OC)[C@H](OC(C)=O)[C@]5(CC)C=CCN6CC[C@]43[C@@H]65)C2)C1 [vincristine] + C#Cc1cccc(Nc2ncnc3cc(OCCOC)c(OCCOC)cc23)c1 [erlotinib] (first compound 0.0005 µM, partner dose 4 µM) | 16.3% | 35.1% | 36.8% | 25.3% | 59.8% | 27.8% | 35.5% | 23.5% | 22.5% | 31.8%
9 | N#CC[C@H](C1CCCC1)n1cc(-c2ncnc3[nH]ccc23)cn1 [ruxolitinib] + Cn1nnc2c(C(N)=O)ncn2c1=O [temozolomide] (first compound 5 µM, partner dose 10 µM) | 103% | 106% | 87.9% | 136% | 108% | 91.5% | 104% | 104% | 102% | 34.1%
